Inconclusive results, whose numbers are uncertain, are shown with a selection of clear calls. For some of these results: Potencies beside an inconclusive call are fits to weak or partial responses and may not hold up. Active and inactive are the calls of the source. Unless noted, the call rests on the fitted dose curve; in most records, active means well fitted curve in the direction sought with a large enough effect in the repeat runs; inconclusive means weak or mixed curves; inactive means no such curve, though single readings can be large; an effect the other way counts as inactive or inconclusive.
Tests used:
[1] = qHTS assay to identify small molecule that activate the aryl hydrocarbon receptor (AhR) signaling pathway - cell viability counter screen (AID 743086); further: nearly all actives have a fitted effect of over 45% in size
Outline: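 Cytotoxicity counter screen: CellTiter-Fluor signal (30 min, 37 C) in 4000 HepG2 cells/well carrying the DRE-luciferase reporter, following 24 h compound exposure at 37 C.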

[2] = biological target: Peroxisome proliferator-activated receptor gamma (Homo sapiens) (UniProt P37231); experiment: qHTS assay to identify small molecule agonists of the peroxisome proliferator-activated receptor gamma (PPARg) signaling pathway (AID 743094; active means well fitted activation curve with a large enough effect in the signal ratio in the repeat runs, not every such curve was filed as active; inconclusive means weak or mixed curves, or effect the other way; inactive means no such curve, though single readings can be large or run the other way; the % refers to the signal ratio; on activation: on the % scale 0 is the no-effect control and ±100 the full control effect); conditions: HEK293H PPARg-UAS-bla, beta-lactamase FRET ratio, 17 h; activation: at 57 µM (top of the series) unless noted
Outline: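 Agonism was assessed in a beta-lactamase reporter system, HEK293H cells with a stably integrated UAS-bla construct under PPARg control; the 17 h treatment at 37C preceded a 1 h room-temperature FRET substrate read.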

[3] = biological target: Peroxisome proliferator-activated receptor gamma (Homo sapiens) (UniProt P37231); experiment: qHTS assay to identify small molecule antagonists of the peroxisome proliferator-activated receptor gamma (PPARg) signaling pathway (AID 743191; calls by dose curve; further: nearly all actives have a fitted effect of over 30% in size; on ratio activity, negative = inhibition: on the % scale 0 is the no-effect control and ±100 the full control effect); conditions: HEK293H PPARg-UAS-bla, beta-lactamase ratio, antagonist, 17 h; ratio activity, negative = inhibition: at 62.6 µM (top of the series) unless noted
Outline: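 Beta-lactamase reporter under UAS control in HEK293H PPARg-bla cells; compound treatment 17 h at 37C. Read-out: fluorescence intensity after 1 h room-temperature incubation with LiveBLAzer B/G FRET substrate.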

[4] = qHTS assay for small molecule agonists of the antioxidant response element (ARE) signaling pathway (AID 743202; active means well fitted activation curve with a large enough effect in the signal ratio in the repeat runs, not every such curve was filed as active; inconclusive means weak or mixed curves, or effect the other way; inactive means no such curve, though single readings can be large or run the other way; the % refers to the signal ratio); conditions: HepG2 ARE-bla reporter, beta-lactamase FRET, 16 h; activation: at 73.3 µM (top of the series) unless noted
Outline: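 After 16 hours of compound treatment at 37 C, HepG2 cells with a stably integrated ARE-driven beta-lactamase reporter were loaded 2 hours at room temperature with LiveBLAzer B/G FRET substrate and fluorescence intensity measured.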

[5] = qHTS assay to identify small molecule agonists of the peroxisome proliferator-activated receptor delta (PPARd) signaling pathway - cell viability counter screen (AID 743211); conditions: PPARd-bla HEK293H viability, CellTiter-Glo luminescence, 17 h; activity change, negative = cytotoxicity: at 62.6 µM (top of the series) unless noted; further: nearly all actives have a fitted effect of over 55% in size
Outline: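 Following 5 h plating at 37 C and 5% CO2, PPARd UAS-bla HEK293H cells took up test compounds for 17 h. Viability was quantified by luminescence 30 min after CellTiter-Glo addition at room temperature.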

[6] = qHTS assay to identify small molecule antagonists of the peroxisome proliferator-activated receptor delta (PPARd) signaling pathway - cell viability counter screen (AID 743213); conditions: PPARd-bla HEK293H viability, CellTiter-Glo luminescence, 17 h; viability change, negative = cytotoxic: at 62 µM (top of the series) unless noted; further: nearly all actives have a fitted effect of over 50% in size
Outline: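 CellTiter-Glo was added to PPARd-bla HEK293H wells following 17 h compound treatment in the presence of 300 nM L165041. Luminescence was recorded after 30 min at room temperature.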

[7] = biological target: Bile acid receptor (Homo sapiens) (UniProt Q96RI1); experiment: qHTS assay to identify small molecule antagonists of the farnesoid-X-receptor (FXR) signaling pathway (AID 743217; active means well fitted inhibition curve with a large enough effect in the signal ratio in the repeat runs, not every such curve was filed as active; inconclusive means weak or mixed curves, or effect the other way; inactive means no such curve, though single readings can be large or run the other way; the % refers to the signal ratio; on activity change, negative = inhibition: on the % scale 0 is the no-effect control and ±100 the full control effect); conditions: HEK293T FXR-UAS-bla, beta-lactamase ratio, CDCA-stimulated, 16 h; activity change, negative = inhibition: at 62.6 µM (top of the series) unless noted
Outline: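 Test compounds are pin-transferred onto FXR-bla HEK 293T cells, then chenodeoxycholic acid is added at 50 uM final. After 16 h at 37 °C, LiveBLAzer B/G substrate is applied for 2 h at room temperature and fluorescence read.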

[8] = qHTS assay to identify small molecule antagonists of the farnesoid-X-receptor (FXR) signaling pathway - cell viability counter screen (AID 743221; active means well fitted cell-killing curve with a large enough effect in the repeat runs, not every such curve was filed as active; inconclusive means weak or mixed curves, or effect the other way; inactive means no such curve, though single readings can be large or run the other way; further: nearly all actives have a fitted effect of over 50% in size); conditions: FXR-bla HEK293T viability, CellTiter-Glo luminescence, 16 h; activity change, negative = cytotoxicity: at 62.6 µM (top of the series) unless noted
Outline: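 Compound effects on cell number were measured as CellTiter-Glo luminescence in HEK 293T cells expressing FXR-UAS-bla, after 16 h at 37 C with 50 uM CDCA (final).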

[9] = qHTS assay to identify small molecule antagonists of the peroxisome proliferator-activated receptor gamma (PPARg) signaling pathway - cell viability counter screen (AID 743194); conditions: PPARg-bla HEK293H viability, CellTiter-Glo luminescence, 17 h, co-treated with 50 nM rosiglitazone; activity change, negative = cytotoxicity: at 62.6 µM (top of the series) unless noted; further: nearly all actives have a fitted effect of over 55% in size
Outline: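 Viability was measured as CellTiter-Glo luminescence in GeneBLAzer PPARg UAS-bla HEK293H cells. These cells had been exposed 17 h at 37 C to compounds together with rosiglitazone at 50 nM final, with the beta-lactamase readout taken in the same wells.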

[10] = qHTS assay for small molecule activators of the heat shock response signaling pathway - cell viability counter screen (AID 743209); conditions: HSE-bla HeLa viability, CellTiter-Glo luminescence, 5 h; activity change, negative = cytotoxicity: at 62.6 µM (top of the series) unless noted; further: nearly all actives have a fitted effect of over 50% in size
Outline: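 Compounds dissolved in DMSO were added to overnight-plated HSE-bla HeLa cells and left 5 h at 37 C. Cell viability was quantified by luminescence using CellTiter-Glo.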

[11] = qHTS assay for small molecule activators of the heat shock response signaling pathway (AID 743210; active means well fitted activation curve with a large enough effect in the signal ratio in the repeat runs, with a control signal flat, not every such curve was filed as active; inconclusive means weak or mixed curves; the % refers to the signal ratio); conditions: HeLa HSE-bla reporter, beta-lactamase ratio, 5 h; activation: at 62.6 µM (top of the series) unless noted
Outline: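 Compound exposure lasted 5 h at 37 C in HeLa cells carrying a heat-shock-element-driven beta-lactamase reporter. Read-out: fluorescence intensity after 2.5 h room-temperature loading with LiveBLAzer B/G FRET substrate.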

[12] = biological target: Peroxisome proliferator-activated receptor delta (Homo sapiens) (UniProt Q03181); experiment: qHTS assay to identify small molecule agonists of the peroxisome proliferator-activated receptor delta (PPARd) signaling pathway (AID 743212; calls by dose curve); conditions: HEK293H PPARd-UAS-bla, beta-lactamase FRET ratio, 17 h; activation: at 62.6 µM (top of the series) unless noted
Outline: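 Beta-lactamase reporter readout: a ratiometric FRET signal from the LiveBLAzer substrate after 2 h at room temperature. Compound exposure at 37 °C in PPARδ-bla HEK293H cells driven by an upstream activator sequence.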

[13] = biological target: Peroxisome proliferator-activated receptor delta (Homo sapiens) (UniProt Q03181); experiment: qHTS assay to identify small molecule antagonists of the peroxisome proliferator-activated receptor delta (PPARd) signaling pathway (AID 743215; active means well fitted inhibition curve with a large enough effect in the signal ratio in the repeat runs, not every such curve was filed as active; inconclusive means weak or mixed curves, or effect the other way; inactive means no such curve, though single readings can be large or run the other way; the % refers to the signal ratio;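 further: cells stimulated with agonist L165041 at 300 nM final during compound exposure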); conditions: HEK293H PPARd-UAS-bla, beta-lactamase FRET ratio, antagonist, 17 h; ratio activity, negative = inhibition: at 62 µM (top of the series) unless noted
Outline: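 Here, a reporter line (HEK293H, beta-lactamase under a UAS) measures PPARd signaling. Compounds are tested against agonist L165041 at 300 nM final concentration over 17 h at 37 C, with fluorescence read after substrate.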

[14] = qHTS assay to identify small molecule agonists of the farnesoid-X-receptor (FXR) signaling pathway - cell viability counter screen (AID 743218); conditions: FXR-bla HEK293T viability, CellTiter-Glo luminescence, 16 h; viability change, negative = cytotoxic: at 62.6 µM (top of the series) unless noted; further: nearly all actives have a fitted effect of over 45% in size
Outline: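 Quantitative HTS counter screen measuring ATP-based viability via CellTiter-Glo luminescence in HEK 293T cells carrying a UAS-driven beta-lactamase reporter, after 16 h compound exposure at 37 C.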

[15] = biological target: Bile acid receptor (Homo sapiens) (UniProt Q96RI1); experiment: qHTS assay to identify small molecule agonists of the farnesoid-X-receptor (FXR) signaling pathway (AID 743220; active means well fitted activation curve with a large enough effect in the signal ratio in the repeat runs, not every such curve was filed as active; inconclusive means weak or mixed curves, or effect the other way; the % refers to the signal ratio); conditions: HEK293T FXR-UAS-bla, beta-lactamase FRET ratio, 16 h; activation: at 62.6 µM (top of the series) unless noted
Outline: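 FXR-UAS-bla HEK 293T cells carrying a UAS-driven beta-lactamase reporter were plated for 5 h at 37C/5% CO2, then exposed to DMSO-dissolved Tox21 10K compounds for 16 h at 37C. A LiveBLAzer B/G FRET substrate was loaded for 2 h at room temperature before fluorescence reading.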

[16] = biological target: Vitamin D3 receptor (Homo sapiens) (UniProt P11473); experiment: qHTS assay to identify small molecule agonists of the vitamin D receptor (VDR) signaling pathway (AID 743222; calls by dose curve; on activation: on the % scale 0 is the no-effect control and ±100 the full control effect); conditions: HEK293T VDR-UAS-bla, beta-lactamase FRET ratio, 16 h; activation: at 63.5 µM (top of the series) unless noted
Outline: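 Tox21 cell reporter format: VDR-bla line, 16 h compound exposure in 5% CO2 at 37C, then fluorescence intensity after 2 h with LiveBLAzer B/G FRET substrate.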

[17] = biological target: Vitamin D3 receptor (Homo sapiens) (UniProt P11473); experiment: qHTS assay to identify small molecule antagonists of the vitamin D receptor (VDR) signaling pathway (AID 743223; active means well fitted inhibition curve with a large enough effect in the signal ratio in the repeat runs, not every such curve was filed as active; inconclusive means weak or mixed curves, or effect the other way; inactive means no such curve, though single readings can be large or run the other way; the % refers to the signal ratio); conditions: VDR-UAS-bla HEK293T, beta-lactamase FRET ratio, 16 h; activity change, negative = inhibition: at 61 µM (top of the series) unless noted
Outline: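 Beta-lactamase activity in VDR-bla cells is measured by FRET substrate fluorescence (2 h, room temperature) after cells spend 16 h at 37C with test compound and 3 nM final 1alpha,25-dihydroxyvitamin D3.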

[18] = qHTS assay to identify small molecule agonists of the vitamin D receptor (VDR) signaling pathway - cell viability counter screen (AID 743224); conditions: VDR-bla HEK293T viability, CellTiter-Glo luminescence, 16 h; activity change, negative = cytotoxicity: at 62.6 µM (top of the series); further: nearly all actives have a fitted effect of over 50% in size
Outline: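 CellTiter-Glo viability readout on VDR-bla cells, measured after 16 h of compound treatment at 37C in the same wells.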
Potency means the concentration at half of the fitted maximal effect; tags describe the fitted curve by direction and shape or compound fluorescence and quenching.

Sequence of UniProt P11473 (P11473 whole entry, looked up): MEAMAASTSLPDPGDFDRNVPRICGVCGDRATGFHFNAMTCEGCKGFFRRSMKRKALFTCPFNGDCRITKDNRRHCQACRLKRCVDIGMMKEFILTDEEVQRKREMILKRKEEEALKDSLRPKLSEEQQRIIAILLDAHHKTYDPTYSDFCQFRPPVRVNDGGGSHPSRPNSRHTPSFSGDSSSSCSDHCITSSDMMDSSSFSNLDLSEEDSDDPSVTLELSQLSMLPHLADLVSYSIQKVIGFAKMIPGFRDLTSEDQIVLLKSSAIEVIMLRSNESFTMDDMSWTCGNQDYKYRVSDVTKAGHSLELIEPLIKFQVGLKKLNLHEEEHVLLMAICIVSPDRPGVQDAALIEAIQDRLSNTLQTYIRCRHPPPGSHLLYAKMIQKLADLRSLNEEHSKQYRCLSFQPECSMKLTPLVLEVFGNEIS
Sequence of UniProt Q96RI1 (Q96RI1 whole entry, looked up): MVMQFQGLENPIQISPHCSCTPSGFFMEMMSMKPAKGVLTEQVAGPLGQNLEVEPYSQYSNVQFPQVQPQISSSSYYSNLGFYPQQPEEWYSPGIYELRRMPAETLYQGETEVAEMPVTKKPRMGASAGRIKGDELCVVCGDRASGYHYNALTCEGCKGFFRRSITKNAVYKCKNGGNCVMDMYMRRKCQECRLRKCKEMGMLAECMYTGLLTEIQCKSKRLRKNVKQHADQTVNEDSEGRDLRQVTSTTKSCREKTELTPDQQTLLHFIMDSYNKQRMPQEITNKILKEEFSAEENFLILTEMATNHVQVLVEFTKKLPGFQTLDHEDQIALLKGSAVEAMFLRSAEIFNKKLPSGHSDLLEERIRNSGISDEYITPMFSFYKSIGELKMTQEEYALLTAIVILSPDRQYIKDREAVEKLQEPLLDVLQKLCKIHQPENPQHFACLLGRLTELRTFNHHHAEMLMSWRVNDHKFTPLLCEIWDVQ
Sequence of UniProt P37231 (P37231 whole entry, looked up): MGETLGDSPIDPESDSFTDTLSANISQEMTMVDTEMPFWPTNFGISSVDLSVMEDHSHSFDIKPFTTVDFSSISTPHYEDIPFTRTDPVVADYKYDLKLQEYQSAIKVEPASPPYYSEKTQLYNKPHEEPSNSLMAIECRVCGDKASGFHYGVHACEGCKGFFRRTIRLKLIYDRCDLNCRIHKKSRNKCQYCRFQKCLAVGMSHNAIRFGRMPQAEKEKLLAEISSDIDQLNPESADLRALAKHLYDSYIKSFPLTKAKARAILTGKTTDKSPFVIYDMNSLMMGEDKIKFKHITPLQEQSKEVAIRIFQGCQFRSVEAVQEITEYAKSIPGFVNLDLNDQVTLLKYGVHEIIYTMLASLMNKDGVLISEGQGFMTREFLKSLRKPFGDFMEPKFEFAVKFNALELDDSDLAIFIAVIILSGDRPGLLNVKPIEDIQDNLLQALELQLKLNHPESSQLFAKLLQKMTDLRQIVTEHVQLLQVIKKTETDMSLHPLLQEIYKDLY
Sequence of UniProt Q03181 (Q03181 whole entry, looked up): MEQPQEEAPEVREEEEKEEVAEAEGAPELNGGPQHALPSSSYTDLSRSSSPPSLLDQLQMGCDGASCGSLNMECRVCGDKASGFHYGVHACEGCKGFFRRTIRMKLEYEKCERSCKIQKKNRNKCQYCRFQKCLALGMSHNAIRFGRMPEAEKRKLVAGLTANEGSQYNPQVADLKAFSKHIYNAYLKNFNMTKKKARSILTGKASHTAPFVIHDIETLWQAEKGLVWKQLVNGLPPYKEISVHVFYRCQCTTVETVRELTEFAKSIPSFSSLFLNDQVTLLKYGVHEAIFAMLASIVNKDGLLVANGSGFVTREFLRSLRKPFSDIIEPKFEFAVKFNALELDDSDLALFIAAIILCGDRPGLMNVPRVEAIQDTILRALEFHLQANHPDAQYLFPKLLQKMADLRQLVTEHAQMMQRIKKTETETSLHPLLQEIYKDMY

CN1CCN(C2=Nc3cc(Cl)ccc3Nc3ccccc32)CC1
inconclusive: Potency [1] 33.5 µM [falling, single point] | activation [2] -11.2% | ratio activity, negative = inhibition [3] -31.5% | Potency [4] 16.8 µM [falling, partial curve, poor fit] | Potency [5] 29.8 µM [cytotoxic, single point] | Potency [6] 29.8 µM [cytotoxic, single point] | Potency [8] 33.5 µM [falling, single point]
inactive: Potency [7]

COc1ccccc1NC(=O)c1cc2ccccc2cc1O
active: Potency [9] 17.4 µM | Potency [11] 50.9 µM | Potency [6] 43.6 µM | Potency [18] 21.9 µM
inconclusive: Potency [1] 30.6 µM [rising, partial curve] | Potency [3] 38.9 µM [rising, partial curve] | Potency [4] 17.2 µM [rising, partial curve] | Potency [10] 54.9 µM [cytotoxic, single point] | Potency [5] 4.9 µM [cytotoxic, full curve] | Potency [12] 43.6 µM [rising, partial curve] | Potency [13] 43.6 µM [partial curve] | Potency [7] 38.9 µM [rising, partial curve] | Potency [14] 49 µM [cytotoxic, single point] | Potency [15] 49 µM [rising, partial curve, poor fit] | Potency [8] 61.6 µM [falling, single point] | Potency [16] 49 µM [rising, partial curve] | Potency [17] 49 µM [rising, partial curve]

COc1cccc(O)c1O
inconclusive: Potency [1] 71.2 µM | Potency [2] 22.7 µM [activator] | Potency [3] 14.3 µM [activator, full curve] | Potency [4] 1.6 µM | Potency [10] 1.02 µM [rising, partial curve, poor fit] | Potency [11] 57.1 µM [falling, partial curve] | activation [16] -33.6% [at 81.1 µM]
inactive: Potency [17]
active: Potency [18] 57.1 µM

— PubChem BioAssay (Tox21)
